# Test results published in the antibiotic and cytotoxicity screens of Wong et al. (2023).
# The list shows a part of the results.
# What was measured:
# HSkMC = human skeletal muscle cells; assay: cytotoxicity call (relative viability < 0.9); conditions: 10 µM
# HepG2 = assay: cytotoxicity call (relative viability < 0.9); conditions: 10 µM
# S. aureus RN4220 = assay: growth inhibition call (relative growth <= 0.2); conditions: 50 µM
SMILES,cytotoxicity call (HSkMC),cytotoxicity call (HepG2),growth inhibition call (S. aureus RN4220)
CCOC(=O)N(C)C[C@@H]1OCc2cnnn2CCCC(=O)N([C@H](C)CO)C[C@@H]1C,inactive,inactive,inactive
C[C@@H]1CCCCO[C@H](CN(C)C(=O)Nc2ccc(C(F)(F)F)cc2)[C@@H](C)CN([C@@H](C)CO)C(=O)c2cc(NC(=O)Nc3ccccc3)ccc2O1,inactive,active,inactive
Nc1ccc2cc(S(=O)(=O)O)ccc2c1/N=N/c1ccc(/C=C/c2ccc(/N=N/c3c(N)ccc4cc(S(=O)(=O)O)ccc34)cc2S(=O)(=O)O)c(S(=O)(=O)O)c1,inactive,inactive,inactive
Nc1nc(-c2ccc(F)cc2)cs1,inactive,inactive,inactive
C[C@@H]1CN([C@H](C)CO)C(=O)c2cc(NS(=O)(=O)c3ccc(Cl)cc3)ccc2O[C@@H](C)CCCCO[C@H]1CN(C)C(=O)C1CCCCC1,inactive,active,inactive
C[C@H](CO)N1C[C@H](C)[C@H](CN(C)C(=O)Nc2ccc(C(F)(F)F)cc2)Oc2ccc(NS(=O)(=O)c3ccc(Cl)cc3)cc2C1=O,inactive,inactive,inactive
C[C@@H]1CN([C@@H](C)CO)C(=O)Cc2cc(NC(=O)Cc3cn(C)c4ccccc34)ccc2O[C@H]1CN(C)Cc1ccc(Oc2ccccc2)cc1,inactive,active,inactive
O=C(Nc1cccnc1)c1nc2ncccn2n1,inactive,inactive,inactive
Cc1noc(C)c1NC(=O)N(C)C[C@@H]1Oc2ccc(NC(=O)Nc3cccc4ccccc34)cc2C(=O)N([C@@H](C)CO)C[C@H]1C,inactive,inactive,inactive
CCCN(C)C[C@@H]1OCCCC[C@@H](C)Oc2ccc(NS(C)(=O)=O)cc2C(=O)N([C@H](C)CO)C[C@H]1C,inactive,inactive,inactive
COCC(=O)N1CC[C@]2(CCOC2)C1,inactive,inactive,inactive
C[C@H]1CCCCO[C@H](CN(C)C(=O)Nc2ccc(F)cc2)[C@@H](C)CN([C@@H](C)CO)C(=O)c2cc(NC(=O)CCC(F)(F)F)ccc2O1,inactive,inactive,inactive
COc1ccc(CN(C)C[C@H]2OCCCC[C@H](C)Oc3ccc(NS(=O)(=O)c4ccc(Cl)cc4)cc3C(=O)N([C@H](C)CO)C[C@@H]2C)cc1,inactive,inactive,inactive
